The target of experiment [1] is T1, HA-Trap-80 (mouse) (UniProt Q8VCD5).
T1 sequence: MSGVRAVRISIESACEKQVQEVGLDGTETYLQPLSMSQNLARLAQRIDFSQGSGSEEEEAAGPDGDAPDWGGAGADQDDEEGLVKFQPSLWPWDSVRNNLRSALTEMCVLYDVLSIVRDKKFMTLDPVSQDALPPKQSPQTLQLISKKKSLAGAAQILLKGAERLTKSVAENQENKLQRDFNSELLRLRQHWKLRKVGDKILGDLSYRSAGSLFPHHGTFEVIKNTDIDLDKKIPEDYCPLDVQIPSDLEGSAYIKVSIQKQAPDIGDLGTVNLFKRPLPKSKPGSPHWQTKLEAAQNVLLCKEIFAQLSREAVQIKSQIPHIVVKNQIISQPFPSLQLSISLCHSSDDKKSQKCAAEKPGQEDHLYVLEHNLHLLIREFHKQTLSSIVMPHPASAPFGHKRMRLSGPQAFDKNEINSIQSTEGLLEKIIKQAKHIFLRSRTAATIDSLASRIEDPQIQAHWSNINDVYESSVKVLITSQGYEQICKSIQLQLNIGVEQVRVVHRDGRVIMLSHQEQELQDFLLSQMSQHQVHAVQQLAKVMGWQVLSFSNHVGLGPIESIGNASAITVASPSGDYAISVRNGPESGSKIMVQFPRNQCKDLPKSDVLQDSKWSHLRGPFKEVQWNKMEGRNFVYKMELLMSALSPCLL
Nature of the experiment: co-IP; HEK-293 co-transfected with p65 and HA-Trap-80; nuclear extracts after TNF-α; IP with anti-HA or anti-p65, western blot; salt diluted to 100 mM, washed in L1 + 150 mM KCl.

The target of experiment [2] is p65-V2 (mouse) (UniProt Q04207). As to the kind of experiment: split reporter; BiFC with Venus fragments V1 and V2 in co-transfected HEK-293 cells; fluorescence intensity by flow cytometry, as percent of p65-V1 with V2-Trap-80.
The target in experiment [3] is T2, V2-Trap-80 (mouse) (UniProt Q8VCD5).
T2 sequence: T1 sequence
The description is as above.

For experiment [4], the target named is T3, Gal4 DNA-binding domain fused to Trap-80 NT (aa 1–335) (mouse) (UniProt Q8VCD5).
T3 sequence: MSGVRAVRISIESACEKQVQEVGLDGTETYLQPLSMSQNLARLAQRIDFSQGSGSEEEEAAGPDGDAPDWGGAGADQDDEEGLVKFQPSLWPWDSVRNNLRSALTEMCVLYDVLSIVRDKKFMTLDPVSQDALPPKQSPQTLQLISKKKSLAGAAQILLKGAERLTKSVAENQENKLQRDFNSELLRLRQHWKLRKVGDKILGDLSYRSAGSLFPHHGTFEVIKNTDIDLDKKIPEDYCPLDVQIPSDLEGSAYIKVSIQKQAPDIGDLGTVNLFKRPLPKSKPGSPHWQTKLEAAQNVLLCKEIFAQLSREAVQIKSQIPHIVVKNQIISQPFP
As to the kind of experiment: two-hybrid; same hybrids; growth on medium lacking histidine (25 mM 3-amino triazole by the methods); not shown.

Experiment [5] concerns the target T4, Gal4 DNA-binding domain fused to full-length Trap-80 (mouse) (UniProt Q8VCD5).
T4 sequence: T1 sequence
Described as above.

The target of experiment [6] is T3, Gal4 DNA-binding domain fused to Trap-80 NT (aa 1–335) (mouse). As to the kind of experiment: two-hybrid; Y153 yeast; Gal4 activation domain-p65 fragments (pAct2) with Gal4 DNA-binding domain-Trap-80 (pGBT9); LacZ read by colony lift on nitrocellulose, lysis, X-Gal at 37 °C.
The target in experiment [7] is full-length mouse p65 (pCDNA3) (mouse) (UniProt Q04207). As to the kind of experiment: co-IP; HEK-293 co-transfected with p65 and HA-Trap-80; nuclear extracts after TNF-α; IP with anti-HA or anti-p65, western blot; salt diluted to 100 mM, washed in L1 + 150 mM KCl.
The target of experiment [8] is T5, p65-V2 (mouse), Q04207.
T5 chain: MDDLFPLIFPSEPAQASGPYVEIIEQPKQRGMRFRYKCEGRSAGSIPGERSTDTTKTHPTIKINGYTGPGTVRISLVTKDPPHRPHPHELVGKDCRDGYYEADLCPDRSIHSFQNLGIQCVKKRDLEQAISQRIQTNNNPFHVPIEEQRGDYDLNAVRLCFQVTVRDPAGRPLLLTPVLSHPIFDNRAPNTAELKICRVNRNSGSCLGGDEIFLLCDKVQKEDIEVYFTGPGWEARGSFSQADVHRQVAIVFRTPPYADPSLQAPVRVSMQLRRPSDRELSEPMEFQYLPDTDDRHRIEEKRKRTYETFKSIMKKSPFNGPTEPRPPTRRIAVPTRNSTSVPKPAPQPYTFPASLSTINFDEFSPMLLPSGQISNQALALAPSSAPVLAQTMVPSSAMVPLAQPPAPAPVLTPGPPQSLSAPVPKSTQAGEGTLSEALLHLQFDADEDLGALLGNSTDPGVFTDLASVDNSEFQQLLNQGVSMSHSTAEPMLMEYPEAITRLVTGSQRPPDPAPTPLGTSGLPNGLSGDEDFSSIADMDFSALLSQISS
Nature of the experiment: split reporter; BiFC with Venus fragments V1 and V2 in co-transfected HEK-293 cells; fluorescence intensity by flow cytometry, as percent of p65-V1 with V2-Trap-80. The note with it: remark: other sources report otherwise.

The target of experiment [9] is T4, Gal4 DNA-binding domain fused to full-length Trap-80 (mouse). Nature of the experiment: two-hybrid; Y153 yeast; Gal4 activation domain-p65 fragments (pAct2) with Gal4 DNA-binding domain-Trap-80 (pGBT9); LacZ read by colony lift on nitrocellulose, lysis, X-Gal at 37 °C.

These are yes or no findings as the source states them, for the method shown. For some assays here: Binding seen in cells or lysates may run through a third protein. Some entries that bind do so weakly or less than the wild type. For some assays here: Sequences can lack the tags named with a protein.

With “full-length mouse p65 (pCDNA3) (from UniProt Q04207 1-549)”, in experiment [1], the binding result is “binds”.
Take “p65ΔTA1 fused to Venus fragment 1 (from UniProt Q04207 1-519) (domain or fragment)”: the binding result in [2] and in experiment [3] was “binds” in each case.
As for “p65ΔTA2 fused to Venus fragment 1 (from UniProt Q04207 1-549)”, the binding result in experiment [2] and in [3] was “binds” in each case.
For the molecule “p65ΔTA1&2 fused to Venus fragment 1 (from UniProt Q04207 1-519) (domain or fragment)”, the binding result in [2] was “binds”; in experiment [3], “no binding”.
Turning to “p65ΔTA2 TA1 DF539AA fused to Venus fragment 1 (from UniProt Q04207 1-549)”, the binding entry in [3] was “no binding”.
The same measure, in the same setting: the same measure for p65-V1 (from UniProt Q04207 1-549): “binds”.
Take “p65DBD-V1 (from UniProt Q04207 1-305) (domain or fragment)”: the binding entry in [2] is reported as “binds”; in experiment [3] it was “no binding”.

B1: Gal4 activation domain fused to p65 CT1 (aa 306–549) (domain or fragment, UniProt Q04207 306-549)
chain: YETFKSIMKKSPFNGPTEPRPPTRRIAVPTRNSTSVPKPAPQPYTFPASLSTINFDEFSPMLLPSGQISNQALALAPSSAPVLAQTMVPSSAMVPLAQPPAPAPVLTPGPPQSLSAPVPKSTQAGEGTLSEALLHLQFDADEDLGALLGNSTDPGVFTDLASVDNSEFQQLLNQGVSMSHSTAEPMLMEYPEAITRLVTGSQRPPDPAPTPLGTSGLPNGLSGDEDFSSIADMDFSALLSQISS
B1: the binding entry in [4], in experiment [5] and in experiment [6] was “binds” in each case.

B2: HA-Trap-80 (protein, UniProt Q8VCD5 1-649)
chain: T1 sequence
For B2, in experiment [7], the binding entry was “binds”.

B3: p65-V1, Q04207 1-549 (protein)
chain: T5 chain
As for B3, the binding entry in [8] is given as “binds”.

B4: Gal4 activation domain fused to p65 CT2 (aa 431–549) (domain or fragment, UniProt Q04207 431-549)
chain: EGTLSEALLHLQFDADEDLGALLGNSTDPGVFTDLASVDNSEFQQLLNQGVSMSHSTAEPMLMEYPEAITRLVTGSQRPPDPAPTPLGTSGLPNGLSGDEDFSSIADMDFSALLSQISS
With B4, the binding entry in experiment [4], in experiment [5], in [6] and in experiment [9] was “binds” throughout.

For the origin of these results see paper PMC2661965.
